# Some of the results follow. These are noisy estimates, calculated here from bound and input reads.
# Target: T1, Pho4 (S. cerevisiae) (UniProt P07270)
# T1 sequence: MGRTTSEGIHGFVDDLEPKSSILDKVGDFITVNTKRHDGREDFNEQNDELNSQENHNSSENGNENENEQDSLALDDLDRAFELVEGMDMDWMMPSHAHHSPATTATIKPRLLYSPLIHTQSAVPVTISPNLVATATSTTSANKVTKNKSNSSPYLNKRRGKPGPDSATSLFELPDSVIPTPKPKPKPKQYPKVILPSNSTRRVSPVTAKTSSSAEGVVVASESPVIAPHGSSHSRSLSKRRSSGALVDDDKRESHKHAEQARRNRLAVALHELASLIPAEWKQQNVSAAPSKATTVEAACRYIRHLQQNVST
# Assay: relative binding free energy (BET-seq); higher = weaker binding
# Details: reference: library average
row,Sequence,relative binding free energy
1,GATGACACGTGGGCTT,-0.08 kcal/mol
2,CGTTGCACGTGGGTGA,-0.21 kcal/mol
3,GGGTTCACGTGATCGG,0.4 kcal/mol
4,TAAATCACGTGATGTG,0.21 kcal/mol
5,GTATGCACGTGGGTGG,-0.14 kcal/mol
6,AAATACACGTGGTGTA,-0.18 kcal/mol
7,ATGAACACGTGTCGTG,0.03 kcal/mol
8,GTGAGCACGTGTGCTG,-0.12 kcal/mol
9,TTGTTCACGTGGGCTT,0.23 kcal/mol
10,GTGACCACGTGGTGTT,0.03 kcal/mol
11,TATTACACGTGTTAGC,0.1 kcal/mol
12,CTGTTCACGTGGTTAG,0.31 kcal/mol
13,ATATGCACGTGGCGTG,-0.12 kcal/mol
14,GAGGCCACGTGGGGGC,-0.08 kcal/mol
15,CGAATCACGTGTGGGG,0.25 kcal/mol
16,TGTAGCACGTGTTTTT,-0.08 kcal/mol
17,AGTGACACGTGATTGG,0.24 kcal/mol
18,TTCTTCACGTGATAGG,0.29 kcal/mol
19,TGATTCACGTGGGTCA,0.15 kcal/mol
20,GTTGACACGTGGTCTA,-0.07 kcal/mol
21,GGTGGCACGTGTAACT,-0.02 kcal/mol
22,TTAGGCACGTGGGGGC,-0.23 kcal/mol
23,GGTAGCACGTGGGGTT,-0.13 kcal/mol

row,Sequence,relative binding free energy
1,GTTGGCACGTGCTGGT,-0.09 kcal/mol
2,ATTGACACGTGTAGAT,0.2 kcal/mol
3,TGATTCACGTGCTGGT,0.22 kcal/mol
4,TAGGTCACGTGAGTTT,0.3 kcal/mol
5,TTGGGCACGTGCGTTA,-0.17 kcal/mol
6,GGTGTCACGTGAGTAG,0.3 kcal/mol
7,TATCACACGTGATTGT,0.19 kcal/mol
8,AGTTACACGTGTGGGC,0.15 kcal/mol
9,ATAGGCACGTGTGTCG,-0.16 kcal/mol
10,TTTGACACGTGCGTAT,-0.08 kcal/mol
11,TGTCTCACGTGTTGTC,0.11 kcal/mol
12,TTTTACACGTGGGTCG,-0.05 kcal/mol
13,TTGGTCACGTGGGATT,0.15 kcal/mol
14,AGGTTCACGTGAGAGA,0.56 kcal/mol
15,TTTTTCACGTGTTAGC,0.35 kcal/mol
16,CGTCTCACGTGAAGGT,0.37 kcal/mol
17,GTGTACACGTGGGTAT,-0.17 kcal/mol
18,CATGTCACGTGTGAAG,0.19 kcal/mol
19,TTTTCCACGTGGGCTG,-0.15 kcal/mol
20,AGGCTCACGTGGGTGG,0.05 kcal/mol
21,TCGTTCACGTGAGTGT,0.18 kcal/mol
22,TTATACACGTGGAGAG,0.09 kcal/mol
23,CAGGCCACGTGTTGGT,-0.01 kcal/mol

row,Sequence,relative binding free energy
1,CGTGGCACGTGTCTTT,-0.07 kcal/mol
2,GAGTTCACGTGACGTG,0.55 kcal/mol
3,CTGGGCACGTGGTGCT,-0.13 kcal/mol
4,TAATTCACGTGGATTA,0.24 kcal/mol
5,CGTTGCACGTGGATTT,0.08 kcal/mol
6,AGAGTCACGTGTAGTT,0.21 kcal/mol
7,GGCCGCACGTGGTATG,-0.09 kcal/mol
8,GTATGCACGTGAAGAT,0.2 kcal/mol
9,TGTTTCACGTGGGGGA,0.18 kcal/mol
10,TGTAACACGTGGTTAG,-0.12 kcal/mol
11,AGTGTCACGTGCTATG,0.02 kcal/mol
12,CGTTACACGTGTGTTA,0.06 kcal/mol
13,GAAGGCACGTGTCGGA,-0.12 kcal/mol
14,AGCTGCACGTGTTGAT,0.14 kcal/mol
15,GTAGTCACGTGATTAT,0.22 kcal/mol
16,TTTGGCACGTGTAATA,0.05 kcal/mol
17,CTGGACACGTGGTCGT,-0.05 kcal/mol
18,ACGGGCACGTGTAGTT,-0.07 kcal/mol
19,GGCTGCACGTGCTTGT,-0.04 kcal/mol
20,AATTTCACGTGGGGGA,0.19 kcal/mol
21,GTTTACACGTGCATGG,0.26 kcal/mol
22,TGACTCACGTGGGTCT,0.14 kcal/mol
23,AGAGACACGTGGCTGG,-0.04 kcal/mol

row,Sequence,relative binding free energy
1,GTAGACACGTGTTTAA,0.08 kcal/mol
2,CTAGGCACGTGAAGTG,0.01 kcal/mol
3,TATCACACGTGTGGTC,0.22 kcal/mol
4,GTGGGCACGTGCCTGT,-0.32 kcal/mol
5,TTAAGCACGTGGTTGA,-0.17 kcal/mol
6,GTCGTCACGTGCGTTG,0.08 kcal/mol
7,CGTGTCACGTGGAGTA,0.05 kcal/mol
8,TAGTTCACGTGGTACT,0.1 kcal/mol
9,CTTTTCACGTGGGTCG,0.09 kcal/mol
10,GTTTGCACGTGCGTGG,0.07 kcal/mol
11,TTTGTCACGTGGAGTT,0.11 kcal/mol
12,ATAATCACGTGCTTGT,0.04 kcal/mol
13,TTGGGCACGTGTATTA,-0.07 kcal/mol
14,ATGTTCACGTGGGTGC,0.07 kcal/mol
15,GGATGCACGTGAGGTT,0.26 kcal/mol
16,AAAGGCACGTGCAGGG,-0.13 kcal/mol
17,AGGGTCACGTGCGTGC,-0.07 kcal/mol
18,TGGTGCACGTGATTGA,0.14 kcal/mol
19,AGGGGCACGTGTATCG,-0.1 kcal/mol
20,TTAGGCACGTGTGTGC,-0.05 kcal/mol
21,TATATCACGTGTGTAT,0.15 kcal/mol
22,AGCTACACGTGATGGT,0.24 kcal/mol
23,AATGGCACGTGTCGGT,-0.2 kcal/mol

row,Sequence,relative binding free energy
1,GTTTACACGTGCAGGT,0.17 kcal/mol
2,TGGTTCACGTGTCGGC,0.33 kcal/mol
3,TGGGGCACGTGACGTT,0.06 kcal/mol
4,CTGGGCACGTGATTTG,0.06 kcal/mol
5,AGGGTCACGTGGGTCA,-0.04 kcal/mol
6,GACAGCACGTGTGGGT,-0.04 kcal/mol
7,ATTGACACGTGTGATT,0.17 kcal/mol
8,TATGGCACGTGATTGC,-0.09 kcal/mol
9,TGCGTCACGTGAGCTG,0.34 kcal/mol
10,GTGTACACGTGCGGCT,0.07 kcal/mol
11,ATAAGCACGTGAGGGT,0.2 kcal/mol
12,GTTCACACGTGAGTGA,0.35 kcal/mol
13,ACAGTCACGTGTAGGT,0.02 kcal/mol
14,AGTAACACGTGTGACT,0.23 kcal/mol
15,AGGGTCACGTGTCCAG,0.1 kcal/mol
16,AATGTCACGTGGGGTC,0.02 kcal/mol
17,AAAAGCACGTGGATTT,-0.01 kcal/mol
18,GGTGACACGTGGGAGC,0.03 kcal/mol
19,TTATACACGTGTATGG,-0.07 kcal/mol
20,TGAGGCACGTGGGAGG,-0.17 kcal/mol
21,TGAAGCACGTGAAATT,0.27 kcal/mol
22,AATAGCACGTGGGATA,-0.17 kcal/mol
23,ATTATCACGTGATGAT,0.22 kcal/mol

# Reference: the BET-seq Pho4 binding data (Le et al. 2018)
